The record followed here is PubChem BioAssay AID485344 (National Center for Advancing Translational Sciences (NCATS), 2010).

Broadly, the inhibition is the relative decrease from the control value, in per cent.

SMILES strings stand for the structures. About 6,900 (2%) of roughly 340,000 compounds were called active. Cut-off read from the data, not from the text of the source: active = inhibition above about 30%; inactive = below that, where a call was filed. The list shows a part of the results, in another mix than the full data. Where no call is shown, the source filed none.

Chain of UniProt P14416 (P14416 whole entry, looked up): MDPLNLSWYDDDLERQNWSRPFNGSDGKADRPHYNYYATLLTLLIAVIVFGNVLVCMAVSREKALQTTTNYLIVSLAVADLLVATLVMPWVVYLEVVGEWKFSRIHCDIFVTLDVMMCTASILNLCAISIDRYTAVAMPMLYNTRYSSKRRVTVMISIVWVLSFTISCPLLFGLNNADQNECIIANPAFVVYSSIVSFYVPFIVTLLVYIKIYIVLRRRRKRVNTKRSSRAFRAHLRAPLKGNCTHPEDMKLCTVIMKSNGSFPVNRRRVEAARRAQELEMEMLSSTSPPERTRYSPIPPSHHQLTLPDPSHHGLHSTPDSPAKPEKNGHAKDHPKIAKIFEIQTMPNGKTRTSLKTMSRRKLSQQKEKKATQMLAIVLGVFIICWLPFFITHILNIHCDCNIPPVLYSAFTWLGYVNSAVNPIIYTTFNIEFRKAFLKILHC

This experiment concerns the target D(2) dopamine receptor (Homo sapiens) (UniProt P14416). Nature of the experiment: HTS Assay for Allosteric Antagonists of the Human D2 Dopamine Receptor: Primary Screen for Antagonists. Note: 0% is about no effect. The following applies: HEK293 TREx D2 cells, calcium flux, dopamine EC80; at 10 µM; stronger effect = higher value. The method in brief:
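Measurement of antagonist activity uses fluorescent calcium dye in inducible HEK293 T-REx D2 cells: 10 s baseline, compound addition with 180 s read, EC80 dopamine addition with a further 180 s read.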
A general note: Calcium assays in cells follow changes in intracellular calcium, usually with a dye or a luminescent sensor.
As to `CCCCNc1nc(CC(C)=O)ns1`, the inhibition was active: 30.2%. The figure for `Oc1ccccc1N1CCN(CC(O)COC2CCCc3ccccc32)CC1` (stereo not given) is active: 40.1%. Under `Cc1ccc(C(=O)O)cc1NC(=O)c1nsc2ccccc12` stands 7.83%. `Cc1ccc(CNC(=O)c2cc(-c3ccc(C)c(C)c3)nc3ccccc23)cc1`: the inhibition is 3.72%. The figure for `Cc1ccc(Cl)cc1N1CCN(c2nc3ccccc3c3nc(-c4cccnc4)nn23)CC1` is -11.3%; for `COc1ccc(CCNC(=O)CN2C(=O)COc3ccc(S(=O)(=O)N4CCCC4)cc32)cc1OC` it is -0.619%.

For `CCCOc1ccc(Oc2nc(NC)nc(N3CCOCC3)n2)nn1`, the inhibition was found to be 2.38%. For `Cc1ccc(NC(=O)C(=O)NCC(c2cccnc2)N2CCN(Cc3ccccc3)CC2)cc1Cl` (stereo not given), the inhibition is -2.59%. For `Cc1ccc(-c2onc(C)c2C)cc1S(=O)(=O)N1CCN(c2ccccc2F)CC1`, the inhibition turned out to be 2.27%. Regarding `COc1cc(OC)c(NC(=O)Nc2ccc3c(c2)N(C)C(=O)c2ccccc2S3)cc1Cl`, the inhibition was -4.63%.

In the case of `COc1cc(OC)cc(-n2c(=O)c3sccc3n(Cc3ccc(F)cc3)c2=O)c1`, the inhibition is -16.6%.

As for `CCn1c2ccccc2c2cc(CN3CCN(Cc4cccc(Cl)c4)CC3)ccc21`, the inhibition was -23.2%. Under `COc1cccc(NC(=O)CCNC(=O)Cn2cnc3ccccc3c2=O)c1` stands 6.13%. `COc1cc(C(CC(=O)NCc2ccccc2Cl)N2Cc3ccccc3C2=O)cc(OC)c1OC` (stereo not given): the inhibition was -6.71%. Turning to `COC(=O)c1ccccc1NC(=O)CCCn1nc(C)c2c(C)n(-c3ccccc3)nc2c1=O`, the inhibition is -4.34%. For `Cc1ccnc(Nc2nc3ccccc3s2)n1`, the inhibition was active: 39.5%.

Consider `CCOc1ccccc1CNC(=O)c1ccc(-n2c(C)cc3c2CCC(C)C3)cc1` (stereo not given), for which the inhibition was -3.72%. Regarding `CCOc1ccc(NC(=O)C(CC)n2nc(C)c3c(C)n(-c4ccccc4)nc3c2=O)cc1` (stereo not given), the inhibition stood at 11.1%. In the case of `Cc1ccc(F)cc1NC(=O)CSc1nc(-c2cccs2)cc(C(F)(F)F)n1`, the inhibition turned out to be 8.87%. As to `Cc1ccc(NC(=O)CN2C(=O)CC(c3ccco3)Sc3ccccc32)cc1Cl` (stereo not given), the inhibition worked out at 3.61%. Turning to `COc1ccc(NC(=O)c2oc3ccccc3c2NC(=O)c2cc3ccccc3o2)c(OC)c1`, the inhibition was -3.36%. For the compound `CCOC(=O)c1ccc(NC(=O)CS(=O)(=O)Cc2nc(-c3ccc(C)cc3)oc2C)cc1`, the inhibition was 0.665%. Under `CC1CCN(CCCCOc2ccccc2Br)CC1` stands active: 90.7%; under `COC(=O)c1c(-c2ccc(Cl)cc2)noc1N1CCN(c2ccc(C(C)=O)cc2)CC1`, 0.585%. For `CCCNC(=O)CCc1c(C)nc2nc(CNC(=O)c3ccccc3)nn2c1C`, the inhibition is 1.82%. Under `O=C(Nc1cccc(-c2ccc(N3CCOCC3)nn2)c1)c1ccc(Cl)cc1` stands active: 30.6%; under `COC(=O)c1cnc(N2CCN(c3ccc(OC)cc3)CC2)c2ccccc12`, 2.34%.

For `Cc1ccccc1NS(=O)(=O)c1ccc2[nH]cc(C(=O)NCCc3ccccc3)c(=O)c2c1`, the inhibition was 13.4%. For the compound `COc1ccc(OCCCC(=O)NCC(C)C)cc1`, the inhibition was active: 30.6%. Under `Cc1ccccc1OCC(=O)Nc1c(C(=O)Nc2ccccc2F)oc2ccccc12` stands -2.09%; under `CCOc1ccc(NC(=O)N2CC3CCCN3c3ccccc32)cc1` (stereo not given), 0.703%. Take `CC(=O)NNc1ncnc2c1cnn2-c1ccccc1`: the inhibition was -15.6%. The figure for `COc1ccc(-c2noc(CSc3nnc(C)n3-c3ccc(F)cc3)n2)cc1` is 8.05%.

As for `Cc1cn2c(=O)c(S(=O)(=O)Nc3ccc(OC(F)(F)F)cc3)c(C)nc2s1`, the inhibition is -18.4%. Take `COc1ccc(NC(=O)C(c2ccccc2)N(C)C(=O)/C=C\c2ccc3c(c2)OCO3)cc1` (stereo not given): the inhibition amounted to 1.4%.

Regarding `COc1ccccc1N1CCN(C2CCN(C(=O)COc3ccccc3)CC2)CC1`, the inhibition was active: 89.8%.

For `CCOc1ccc(C(=O)Nc2ccc3nc(Nc4cccc(C(F)(F)F)c4)cc(C)c3c2)cc1OCC`, the inhibition was -8.3%. `COc1ccc(-c2c(C)nn3c(C(F)(F)F)cc(-c4ccc(C)cc4)nc23)cc1`: the inhibition was found to be 15.5%. On to `COc1ccc(C(CC(=O)Nc2cc(Cl)c(OC)cc2OC)N2Cc3ccccc3C2=O)cc1` (stereo not given), for which the inhibition is -7.79%.

On to `COc1ccc(CNC(=O)Cn2c(=O)n3nc(-c4ccc(OC)cc4)nc3c3ccccc32)cc1`, for which the inhibition is -15.7%. Regarding `CC(=O)c1cccc(NS(=O)(=O)c2ccc3[nH]c4c(c3c2)CCCCC4)c1`, the inhibition was -3.99%. `O=C(Nc1cccc(Br)c1)N1CCN2CCCCC2C1` (stereo not given): the inhibition is -14.8%.

`Cc1cccc(NC(=O)/C(C#N)=C/c2ccco2)c1`: the inhibition came to 13.7%. The figure for `COc1ccc(OC)c(CNC(=O)c2cc3c(Cl)nc4ccccc4c3s2)c1` is -5.75%; for `CCCNC(=O)Cn1nc(-c2ccc(OC)cc2)c2cnc3ccc(F)cc3c21` it is -9.3%. Consider `COc1ccccc1CC(=O)Nc1ccc2nc(Nc3cccc(C(F)(F)F)c3)cc(C)c2c1`, for which the inhibition is -6.76%. For `O=C(Nc1nc2n(n1)C(c1ccc(F)cc1)C=C(c1ccc(Cl)cc1)N2)c1ccc([N+](=O)[O-])cc1` (stereo not given), the inhibition amounted to 10.8%.

For the compound `COc1ccc(NC(=O)c2cnn(-c3ccc(C)c(C)c3)c2C2CCNCC2)cc1OC`, the inhibition was -9.05%.

For the compound `Cc1cccc(C2=Nc3ccccc3N=C(c3cc(Cl)ccc3O)C2)c1`, the inhibition worked out at 3.93%. On to `CCOc1ccc(NC(=O)CCc2c(C)nc3cc(-c4ccccc4OC)nn3c2C)cc1`, for which the inhibition amounted to 16.6%. Regarding `O=C(O)c1ccc(NS(=O)(=O)c2ccc(Cl)c(C(=O)Nc3ccccc3)c2)cc1`, the inhibition stood at 9.05%.

For `Cc1ccc(N(C)S(=O)(=O)c2ccc3[nH]c(=O)ccc3c2)cc1`, the inhibition came to 9.78%.

With `Cc1c(NC(=O)Nc2ccc(Cl)c(Cl)c2)sc2nc3n(c(=O)c12)CCC(C)CC3` (stereo not given), the inhibition was -1.49%. As to `O=C(c1ccc(CS(=O)(=O)c2ccc(Br)cc2)o1)N1CCN(c2ccc(F)cc2)CC1`, the inhibition is 8.35%. Take `Cc1ccc(NC(=O)c2sc3ncnc(N(C)C4CCCCC4)c3c2C)c(C)c1`: the inhibition is -3.62%. Turning to `COC(=O)c1scc(-c2ccc(C)cc2)c1S(=O)(=O)N1CCN(c2ccc(F)cc2)CC1`, the inhibition was -2.83%. Take `Nc1c(C(=O)NCc2cccs2)nnn1CC(=O)Nc1cccc(F)c1`: the inhibition came to 16.5%.

For `O=C(NCc1ccco1)c1ccc2c(c1)N(Cc1ccccc1)C(=O)c1ccccc1S2`, the inhibition was -16.6%.

For the compound `CCC1CCCCN1C(=O)c1c[nH]c2ccc(S(=O)(=O)Nc3cccc(OC)c3)cc2c1=O` (stereo not given), the inhibition amounted to 4.47%.

With `CCOc1ccc(NC(=O)c2ccc3c(c2)OCCO3)cc1S(=O)(=O)N(CC)CC`, the inhibition is active: 31.9%. Under `Cc1cc(C)c(S(=O)(=O)NCCc2sc3nc(-c4ccc(F)cc4)nn3c2C)c(C)c1` stands 25.3%. Under `Cc1cc(C)cc(-n2ccn(CC(=O)c3ccc(F)cc3)c(=O)c2=O)c1` stands -14.1%; under `O=S(=O)(NCC(c1ccc2c(c1)OCO2)N1CCN(c2ccccc2)CC1)c1ccccc1` (stereo not given), active: 80.5%. As for `O=C(NC1CCCCC1)c1ccc(CSc2nc3cccnc3n2Cc2cccc(F)c2)cc1`, the inhibition was -13.3%. The figure for `CCOC(=O)c1cc(-c2ccc(C)cc2)n(CCCC(=O)Nc2cc(C)ccc2C)c1` is 7.04%; for `Cc1cccc(-n2c(Cc3cc(=O)[nH]c(=O)[nH]3)nnc2SCC(=O)Nc2cccc(C(F)(F)F)c2)c1` it is active: 36.6%.

On to `Cc1cccc(C(=O)n2nc(C)c(S(=O)(=O)N3CCOCC3)c2C)c1`, for which the inhibition was -2.05%. The figure for `CCCCC(=O)N1CCc2cc(OC)c(OC)cc2C1COc1ccc(C(=O)OCC)cc1` (stereo not given) is -7.35%; for `COCCCn1c(=N)c(C(=O)NC2CCCC2)cc2c(=O)n3cccc(C)c3nc21` it is -0.763%. The figure for `COc1ccc(Cn2ccc3nc(C)c(C(=O)Nc4cc(OC)c(OC)c(OC)c4)cc3c2=O)cc1` is -12%; for `Cc1cc(C)n(C(C)CC(=O)Nc2ccc(Cl)cc2C)n1` (stereo not given) it is 13.8%. Regarding `Cc1c(C(=O)NC2CCN(Cc3ccccc3)C2)oc2ccc(Br)cc12` (stereo not given), the inhibition was active: 37.7%. Under `COc1cccc(CN2C(=O)C3(SCC(=O)N3c3ccc(C)c(Cl)c3)c3ccccc32)c1` (stereo not given) stands 3.06%; under `Cc1ccc(-n2c(=O)c3ccc(C(=O)NCc4ccco4)cc3n(CC(=O)Nc3ccc(C)c(F)c3)c2=O)cc1`, -9.9%.

Consider `Cc1ccc(NS(=O)(=O)c2ccc3c(c2)N(C)C(=O)CC(=O)N3C)cc1Cl`, for which the inhibition turned out to be 15.8%. `COc1ccc(CNC(=O)c2ccc3c(c2)nc2n3CCCCC2)cc1`: the inhibition is -3.46%. Consider `CC1CCc2c(sc(NC(=S)NC(=O)c3ccccc3)c2C#N)C1` (stereo not given), for which the inhibition was active: 37.5%. Regarding `CCC1CN(C(=O)N2CCC(C(=O)N3CCN(c4ccccc4)CC3)CC2)c2ccccc2O1` (stereo not given), the inhibition amounted to 15.3%. Regarding `CCOC(=O)N1CCc2c(sc(NCc3ccc(N(CC)CC)cc3)c2C(=O)Nc2cc(OC)ccc2OC)C1`, the inhibition amounted to 2.51%. As to `O=S(=O)(NCC(c1cccs1)S(=O)(=O)c1ccccc1)c1ccccc1` (stereo not given), the inhibition amounted to 12.8%. Consider `CCOC(=O)C(NC(=O)c1ccccc1)(Nc1cc(C)on1)C(F)(F)F` (stereo not given), for which the inhibition is active: 31.2%. Under `COc1ccc(-c2nc3n(n2)C(c2ccccc2OC)C(C(=O)Nc2cccnc2)=C(C)N3)cc1` (stereo not given) stands 14.9%. For the compound `CCOc1ccc(NC(=O)Cn2c(=O)n(CCCCC(=O)NCCc3ccc(Cl)cc3)c(=O)c3ccccc32)cc1`, the inhibition is 0.982%. Take `CCOc1ccc(C(=O)Nc2ccc3oc(-c4ccc(C)cc4C)nc3c2)cc1Br`: the inhibition is -4.49%. For the compound `CCc1ccccc1NC(=O)CC1NCCNC1=O` (stereo not given), the inhibition came to 26.9%. In the case of `O=C(C1CCC(CNS(=O)(=O)c2ccc(Br)s2)CC1)N1CCN(c2ccc(F)cc2)CC1` (stereo not given), the inhibition is -16.6%. Regarding `O=C(Nc1cccc(Cl)c1)N1CC2CCCN2c2ccccc21` (stereo not given), the inhibition was -4.49%. Consider `Cc1oc(-c2ccccc2F)nc1CS(=O)CC(=O)NC(C)C` (stereo not given), for which the inhibition was 2.23%. As for `COc1ccc(OC)c(NC(=O)c2cccc3c2C(=O)N(C2CCCCC2)C3)c1`, the inhibition was -1.67%.

As for `Cc1cccc(Cn2c(CNS(=O)(=O)c3ccc(C(C)C)cc3)nc3cccnc32)c1`, the inhibition turned out to be 11.3%. `O=C(CSc1nc2c([nH]c3ccccc32)c(=O)n1-c1ccc(F)cc1)N1CCc2ccccc21`: the inhibition was -25%.

For `CCc1ccc(-n2nc(CO)c(C(=O)NCCc3ccccc3)n2)cc1`, the inhibition was 9.19%.

`Cc1cc(C)cc(-n2c(SCC(=O)N3CCC(C)CC3)nc3c([nH]c4ccccc43)c2=O)c1`: the inhibition is 8.39%. In the case of `Cc1ccc(C)c(N2CCN(C(=O)Cc3c(C(=O)O)c(C)cn3C)CC2)c1`, the inhibition was determined as 5.64%. For `COc1cccc(C(=O)N2CCCCC2CCN2CCCCC2)c1` (stereo not given), the inhibition is -20%.
